Hit rate of the full screen: of about 310,000 compounds, about 2,200 (0.71%) showed an effect of 50% or more. Effects have a minus sign here. The list shows a part of the results.

The target in this experiment is human ether-à-go-go-related gene (hERG) potassium channel (human, UniProt Q12809). The experiment is described as follows: primary screen, population patch clamp on CHO cells stably expressing hERG.
human ether-à-go-go-related gene (hERG) potassium channel, sequence (Q12809 whole entry, looked up): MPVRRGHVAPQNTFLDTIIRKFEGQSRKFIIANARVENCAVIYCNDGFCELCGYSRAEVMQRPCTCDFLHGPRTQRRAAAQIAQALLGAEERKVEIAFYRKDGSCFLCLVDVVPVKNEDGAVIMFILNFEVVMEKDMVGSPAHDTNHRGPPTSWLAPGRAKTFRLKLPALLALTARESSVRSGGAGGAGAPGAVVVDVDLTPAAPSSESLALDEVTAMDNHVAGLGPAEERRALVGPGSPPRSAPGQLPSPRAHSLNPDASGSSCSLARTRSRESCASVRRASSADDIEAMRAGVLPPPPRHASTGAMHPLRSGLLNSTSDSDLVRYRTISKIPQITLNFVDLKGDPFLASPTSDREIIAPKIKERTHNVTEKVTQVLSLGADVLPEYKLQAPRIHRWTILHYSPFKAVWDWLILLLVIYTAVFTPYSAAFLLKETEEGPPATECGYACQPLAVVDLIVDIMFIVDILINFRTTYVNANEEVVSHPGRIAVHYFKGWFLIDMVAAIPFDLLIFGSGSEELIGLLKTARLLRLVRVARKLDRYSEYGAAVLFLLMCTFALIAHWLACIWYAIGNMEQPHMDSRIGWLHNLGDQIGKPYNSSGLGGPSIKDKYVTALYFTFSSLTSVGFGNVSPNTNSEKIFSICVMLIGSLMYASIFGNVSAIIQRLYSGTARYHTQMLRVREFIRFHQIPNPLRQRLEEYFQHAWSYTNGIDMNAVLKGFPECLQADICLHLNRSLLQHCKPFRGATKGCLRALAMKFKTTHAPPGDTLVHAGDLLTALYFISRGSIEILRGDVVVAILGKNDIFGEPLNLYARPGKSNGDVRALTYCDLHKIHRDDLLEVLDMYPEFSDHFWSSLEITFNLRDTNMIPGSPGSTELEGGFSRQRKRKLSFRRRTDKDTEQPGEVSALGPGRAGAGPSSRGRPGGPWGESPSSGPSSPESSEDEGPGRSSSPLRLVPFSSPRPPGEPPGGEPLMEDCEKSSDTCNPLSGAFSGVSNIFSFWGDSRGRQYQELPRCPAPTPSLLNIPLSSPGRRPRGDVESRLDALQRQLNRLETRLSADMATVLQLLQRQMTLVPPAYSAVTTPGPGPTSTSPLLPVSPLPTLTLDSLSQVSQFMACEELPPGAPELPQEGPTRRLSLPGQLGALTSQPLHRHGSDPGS
With `CN(C)Cc1c(C(=O)N/N=C/CCc2ccccc2)nnn1-c1nonc1N`, the “hERG current change (%, negative = inhibition) at 1uM” value was found to be 2.26%. On to `Cc1cccc(Nc2nc(C)cc(C)n2)c1.Cl`, for which the “hERG current change (%, negative = inhibition) at 1uM” value worked out at 21.9%. On to `O=C(c1cn[nH]c1)c1cc(F)ccc1O`, for which the “hERG current change (%, negative = inhibition) at 1uM” value worked out at 11.2%. On to `O=C1OC(Nc2ccc3ncccc3c2)c2ccccc21` (stereo not drawn), for which the “hERG current change (%, negative = inhibition) at 1uM” value turned out to be 19.9%. On to `CCOc1cc(/C=C/C(=O)OCC(=O)NC2CCS(=O)(=O)C2)ccc1OCc1ccccc1` (stereo not drawn), for which the “hERG current change (%, negative = inhibition) at 1uM” value was 4.3%.

Take `CCOc1ccc(/C=N/NC(=O)c2cc(-c3cccn3C)n[nH]2)cc1`: the “hERG current change (%, negative = inhibition) at 1uM” value stood at 19.3%. With `O=C1CC[C@H](O)CCN1CCSc1ccc(Br)cc1`, the “hERG current change (%, negative = inhibition) at 1uM” value came to 9.22%.

On to `CC(C)(C)NC(=O)CN(C(=O)CS(=O)CC(=O)Nc1ccc(F)cc1)c1cccc(F)c1` (stereo not drawn), for which the “hERG current change (%, negative = inhibition) at 1uM” value was determined as 8.75%. The result for `CCC(C)(C)NC(=O)CN(C(=O)CCC(=O)Nc1cc(C)ccn1)c1ccc2c(c1)OCO2` reads 7.31%; that for `Cn1c(SCC(=O)Nc2cccc(O)c2)nnc1-c1ccc(S(=O)(=O)N2CCOCC2)cc1`, 9.1%; that for `CCc1nnc(NS(=O)(=O)c2ccc(NC(=O)c3cc4ccccc4oc3=O)cc2)s1`, 7.18%. Take `O=[N+]([O-])c1ccc(Oc2ncccn2)cc1`: the “hERG current change (%, negative = inhibition) at 1uM” value amounted to 8.42%. With `O=C(Cn1cnc2c(nnn2-c2cccc(F)c2)c1=O)Nc1ccc2c(c1)OCCO2`, the “hERG current change (%, negative = inhibition) at 1uM” value is reported as 12%. On to `COc1cc2sc3ccc(C#CC4(O)CCCCC4)cc3c(=O)c2cc1OC`, for which the “hERG current change (%, negative = inhibition) at 1uM” value is given as 16.6%. For `O=C1NC(c2ccc(O)cc2)Nc2ccccc21` (stereo not drawn), the “hERG current change (%, negative = inhibition) at 1uM” value worked out at 3.49%. As for `COCCNC(=O)c1c(NC(=O)c2ccco2)n(Cc2ccccc2)c2nc3ccccc3nc12`, the “hERG current change (%, negative = inhibition) at 1uM” value came to 2.66%. For the molecule `Cc1ccc(SCc2cc(=O)[nH]c(N3CCN(Cc4ccccc4)CC3)n2)cc1`, the “hERG current change (%, negative = inhibition) at 1uM” value is given as 12.3%. Consider `O=C(O)COc1ccc(Br)cc1CP(=O)(c1ccccc1)c1ccccc1`, for which the “hERG current change (%, negative = inhibition) at 1uM” value is listed as 9.68%. Consider `COc1cc(CNCc2cccs2)ccc1OCC(N)=O.Cl`, for which the “hERG current change (%, negative = inhibition) at 1uM” value was 6.75%.

For `O=C(CN(c1ccc(F)cc1)S(=O)(=O)c1ccccc1)NC1CC2CCC1C2` (stereo not drawn), the “hERG current change (%, negative = inhibition) at 1uM” value stood at 8.53%.

For `Cc1ccc(NC(=S)NC2CC3CCCC(C2)N3Cc2ccco2)cc1` (stereo not drawn), the “hERG current change (%, negative = inhibition) at 1uM” value is reported as -36.1%.

As for `Cc1ccc(-c2nnn(CC(=O)N(CCO)C(C(=O)NC3CCCC3)c3ccc(F)cc3)n2)o1` (stereo not drawn), the “hERG current change (%, negative = inhibition) at 1uM” value turned out to be 6.32%.

With `Cc1nnc(SCc2nc3ccccc3nc2C)s1`, the “hERG current change (%, negative = inhibition) at 1uM” value came out at 8.4%. As for `COc1nc(N(c2ccccc2)c2ccccc2)nc(-n2ccnc2)n1`, the “hERG current change (%, negative = inhibition) at 1uM” value was -3.13%.

The record behind these values is PMC4336329 (PLoS ONE, 2015).
